From the RNAGym collection of RNA variant scans (doi:10.1093/nar/gkz1192)
The source gives no read counts; variants with many changes may rest on few reads.

B1: CPEB3 Ribozyme (parent)
chain: UAACAGGGGGCCACAGCAGAAGCGUUCACGUCGCAGCCCCUGUCAGAUUCUGGUGAAUCUGCGAAUUCUGCUGUAUAUCUC

Variants of: B1
Experiment: self-cleavage, relative activity (ratio to wild type); higher = more cleavage; in vitro, sequencing
In short: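 For each CPEB3 ribozyme variant, relative activity is its cleaved/total read fraction divided by the unmutated ribozyme's. Barcoded error-prone PCR libraries were transcribed by T7 RNA polymerase (5 hours, 37°C) and held in DNase I for 15 min before an EDTA stop, with cleavage occurring throughout. Template-switching reverse transcription and Illumina sequencing were used to read the RNAs. A 5-read minimum applied, and results are the mean of three batches.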

Row | Variant | self-cleavage
1 | G52A A64G U78C | 0.64
2 | G52A A77G U80A | 1.07
3 | G52A G55C A57U | 0.51
4 | G52A G61A U74C | 1.08
5 | G52A U58A C62A | 0.27
6 | G52A U60C U72C U78C | 0.87
7 | G52A U60C U76A | 0.87
8 | G52A U60C U80A | 1
9 | G52A U66A U80A | 0.41
10 | G52A U74A U80A | 1.26
11 | G52C A57U U76C | 0.54
12 | G52C U54A U67C | 0.78
13 | G52C U54G A57G A64G | 0.62
14 | G52C U60A U69C | 0.72
15 | G52C U72A U78C | 0.77
16 | G52U A56G A57G U72A | 0.46
17 | G52U A64G A77G | 0.88
18 | G52U A64G U72C | 1.06
19 | G52U A65U U78C | 0.17
20 | G52U U54C U60C U72A | 0.4
21 | G52U U60A U74C | 0.94
22 | G53A A57G A77G | 0.6
23 | G53A A64G A65G | 0.18
24 | G53A A64U U76A | 0.31

Row | Variant | self-cleavage
25 | G53A A65G U72A U78A | 0.38
26 | G53A U54G G73U | 1.27
27 | G53A U58C U72C A75U | 1.1
28 | G53A U60C A64G U67A U78C U80A | 0.46
29 | G53A U60C U80C | 0.4
30 | G53A U67A U76C | 0.69
31 | G53A U76A U80C | 1.12
32 | G53C A57G A64G U66A A77G | 0.15
33 | G53C A57G U80C | 0.81
34 | G53C A65G U80C | 0.55
35 | G53U U54A U58C U60A U74G | 0.34
36 | G53U U58C A75G | 0.86
37 | U54A A56C U72A | 0.62
38 | U54A A56G A57U U58C | 0.14
39 | U54A A56G U72G | 0.52
40 | U54A A56U A64U | 0.21
41 | U54A A56U G73A | 1.06
42 | U54A A57G A64G | 0.8
43 | U54A A57G A64U | 0.41
44 | U54A A57G U58C C68G | 0.22
45 | U54A A57G U67C | 0.68
46 | U54A A57G U78C | 0.84
47 | U54A A64G U76C | 1.11
48 | U54A A65G U67A | 0.26

Row | Variant | self-cleavage
49 | U54A C62U A65G U80A | 0.18
50 | U54A C62U U66C | 0.22
51 | U54A C68U U69G | 0.52
52 | U54A C68U U76C | 1.14
53 | U54A G55C G73A | 1.15
54 | U54A G61A A65G U74C | 0.33
55 | U54A G63C U78A | 1.02
56 | U54A U58C A64G U76C | 0.4
57 | U54A U60C A64U | 0.2
58 | U54A U60C A77G | 0.94
59 | U54A U60C G63A U78C | 0.39
60 | U54A U60C U66A G70U | 0.34
61 | U54A U60C U80C | 0.56
62 | U54A U66C U67A | 0.28
63 | U54A U66C U67C | 0.55
64 | U54A U66C U69A | 0.48
65 | U54A U66C U80C | 0.32
66 | U54A U67A U78C | 0.81
67 | U54A U67C U78C U80C | 0.39
68 | U54A U69C C81U | 0.91
69 | U54A U69C U76A | 0.67
70 | U54A U69G U72C | 0.5
71 | U54A U74C U80C | 1.26
72 | U54A U76C U80C | 1.15

Row | Variant | self-cleavage
73 | U54A U78C U80C | 0.97
74 | U54C A56C U69C | 0.14
75 | U54C A56G A57G | 0.25
76 | U54C A56G A77G | 0.59
77 | U54C A56G C68U U74A | 0.68
78 | U54C A56G G70A | 0.29
79 | U54C A56G U66G U69C | 0.16
80 | U54C A56G U76C | 0.7
81 | U54C A56G U78A | 0.73
82 | U54C A56G U78C | 0.53
83 | U54C A56G U78C U80A | 0.66
84 | U54C A56U U66C | 0.18
85 | U54C A57G C68G A77G | 0.09
86 | U54C A57G U69C | 0.21
87 | U54C A57G U69C A77G | 0.31
88 | U54C A57U A64C U67A | 0.09
89 | U54C A64G C81U | 0.88
90 | U54C A64G U67C U72C U78G | 0.36
91 | U54C A64G U72C A75G U80A | 0.52
92 | U54C A64G U76G | 0.85
93 | U54C A64U U67C A75U | 0.45
94 | U54C A64U U69A | 0.28
95 | U54C A65C U67C U76C | 0.12
96 | U54C A65G A75U | 0.28

Row | Variant | self-cleavage
97 | U54C A65G G73A | 0.84
98 | U54C A65U U66C U67C U80C | 0.21
99 | U54C A77G U80C | 0.88
100 | U54C C59G A65G | 0.15
101 | U54C C59U A65G | 0.49
102 | U54C C59U U72C | 0.8
103 | U54C C62G U66G | 0.16
104 | U54C C62U U72C | 0.17
105 | U54C G55A A75U | 0.83
106 | U54C G55A G61A | 0.17
107 | U54C G61A U66C U72C U74C | 0.28
108 | U54C G61C U80C | 0.35
109 | U54C G63A A64G U69G | 0.37
110 | U54C G63A U76C | 0.77
111 | U54C G70A A77G | 0.54
112 | U54C U58A U80C | 0.26
113 | U54C U58C A64G C68A U80C | 0.13
114 | U54C U58C G70A U78C | 0.58
115 | U54C U58C G73A A75G | 1.07
116 | U54C U58C U60A U69A U76C | 0.23
117 | U54C U58C U60C | 0.17
118 | U54C U58C U60C U74A | 0.24
119 | U54C U58C U69A U78C | 0.17
120 | U54C U60A A65G U69C | 0.27

Row | Variant | self-cleavage
121 | U54C U60A U66C | 0.19
122 | U54C U60A U66C U69C | 0.23
123 | U54C U60A U72A | 0.35
124 | U54C U60A U76C | 0.33
125 | U54C U60A U78C C81U | 0.28
126 | U54C U60A U80C | 0.36
127 | U54C U60C A77G | 0.43
128 | U54C U60C U67A | 0.16
129 | U54C U60C U67C U78A | 0.29
130 | U54C U60C U69A | 0.42
131 | U54C U66A U69A | 0.18
132 | U54C U66C A77G | 0.38
133 | U54C U66C U67A | 0.2
134 | U54C U66C U74C | 0.42
135 | U54C U66C U76C | 0.64
136 | U54C U66C U80C | 0.26
137 | U54C U67A U72A | 0.15
138 | U54C U67A U72C A75G | 0.44
139 | U54C U67C C68U | 0.18
140 | U54C U67C U69A | 0.26
141 | U54C U67C U69C | 0.15
142 | U54C U67G U69C U80A | 0.21
143 | U54C U67G U80C | 0.46
144 | U54C U69A G73U U74C | 0.67

Row | Variant | self-cleavage
145 | U54C U69A U72C | 0.27
146 | U54C U69C C79A U80G | 0.58
147 | U54C U72C U76A | 1.21
148 | U54C U72C U78C | 1.24
149 | U54C U72C U80C | 1.15
150 | U54C U76C U78C | 1.05
151 | U54C U76C U80C | 1.19
152 | U54G A64G U69C A77G | 0.21
153 | U54G G55U U80C | 0.98
154 | U54G G63C A65U U69A | 0.34
155 | U54G U67A U78C | 0.2
156 | U54G U67C U80C | 0.29
157 | G55A A56G U72A | 0.46
158 | G55A A56G U74G | 1.07
159 | G55A A56U U69A | 0.35
160 | G55A A57G U78C | 0.5
161 | G55A A57U U78C | 0.31
162 | G55A A64U U67C | 0.2
163 | G55A U66C U67C U80C | 0.28
164 | G55A U67C U72A | 0.11
165 | G55A U69A U72C U76C | 0.18
166 | G55C A65U U67A | 0.21
167 | G55C U60G A65G | 0.3
